Target: Tenascin-C (Mus musculus, UniProt Q80YX1, FITC-labelled tenascin-C)
Experiment: isothermal fluorescence titration

Binder	Kd [µM]
CXCL8 (protein) not shown	1.99
CXCL10 (protein) not shown	1.36
